# Results taken from the supplement of paper PMC4967469.
# A lower IC50 marks a more sensitive line; where the fit passes the top or lowest dose, that dose stands as a limit. AUC, from the same fit, is the share of area under the viability curve across the 256-fold dose range; it is 1 without any effect and falls as sensitivity rises. For some of these results: A top dose marked as inferred was calculated from the reported fits. For some of these results: An entry number marks a drug with two screens in the source, which often give different values.
# How the values were obtained:
# Experiment in all cases: Viability of human cancer cell lines after 72 h of drug (GDSC screen)
# Tretinoin = compound: CC1=C(/C=C/C(C)=C/C=C/C(C)=C/C(=O)O)C(C)(C)CCC1 [Tretinoin]; details: top dose 10 µM; top dose inferred
# Experimental: (§1)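 Human cancer cell lines in 384-well plates, medium with 10% serum, drug for 72 h over a 256-fold dose range (nine 2-fold or five 4-fold steps up to the top dose). Adherent lines were fixed and stained with the nucleic acid dye Syto60, suspension lines read with resazurin; signal relative to control wells, capped at 0 and 100%. One two-parameter sigmoid per drug and line, fitted in a mixed model over all curves with the slope shared within a line.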
# GSK690693 = compound: CCn1c(-c2nonc2N)nc2c(C#CC(C)(C)O)ncc(OC[C@H]3CCCNC3)c21 [GSK690693]; details: top dose 10.24 µM; top dose inferred
# Experimental: as §1
# UNC0638 = compound: COc1cc2c(NC3CCN(C(C)C)CC3)nc(C3CCCCC3)nc2cc1OCCCN1CCCC1 [UNC0638]
# Experimental: as §1
# SB-505124 = compound: Cc1cccc(-c2[nH]c(C(C)(C)C)nc2-c2ccc3c(c2)OCO3)n1 [SB-505124]; details: top dose 10 µM; top dose inferred
# Experimental: as §1
# BX-795 = compound: O=C(NCCCNc1nc(Nc2cccc(NC(=O)N3CCCC3)c2)ncc1I)c1cccs1 [BX-795]; details: top dose 5 µM; top dose inferred
# Experimental: as §1
# PI-103 = compound: Oc1cccc(-c2nc(N3CCOCC3)c3oc4ncccc4c3n2)c1 [PI-103]; details: top dose 10.24 µM
# Experimental: as §1
# [1] = top dose 20 µM, screen: GDSC drug entry 1236, top dose inferred
# [2] = top dose 40 µM, screen: GDSC drug entry 245
Cell Line,AUC (Tretinoin),IC50 (Tretinoin) [µM],AUC (GSK690693),IC50 (GSK690693) [µM],AUC (UNC0638; [1]),IC50 (UNC0638; [1]) [µM],AUC (UNC0638; [2]),IC50 (UNC0638; [2]) [µM],AUC (SB-505124),IC50 (SB-505124) [µM],AUC (BX-795),IC50 (BX-795) [µM],AUC (PI-103),IC50 (PI-103) [µM]
"HCC-15 (lung squamous cell carcinoma, adherent)",0.914,> 10,0.963,> 10.2,0.838,19.5,0.788,23.1,0.958,> 10,0.763,2.3,0.868,> 10.2
"HCC-44 (lung adenocarcinoma, adherent)",0.986,> 10,0.951,> 10.2,0.779,7.99,0.605,4.82,0.98,> 10,0.684,1.01,0.503,0.653
"HCC-56 (large intestine, adherent)",0.985,> 10,0.987,> 10.2,0.856,16.8,0.702,9.39,0.976,> 10,0.93,> 5,0.946,> 10.2
"HCC-78 (lung adenocarcinoma, adherent)",0.976,> 10,0.884,> 10.2,0.773,9.19,0.736,13.5,0.981,> 10,0.896,> 5,0.282,0.137
"HCC-827 (lung adenocarcinoma, adherent)",0.913,> 10,0.949,> 10.2,0.941,> 20,0.981,> 40,0.979,> 10,0.922,> 5,0.631,1.56
"HCT-15 (large intestine, adherent)",0.987,> 10,0.974,> 10.2,0.985,> 20,0.801,20.9,0.985,> 10,0.85,4.17,0.541,0.836
"HDQ-P1 (breast, adherent)",0.985,> 10,0.968,> 10.2,0.983,> 20,0.733,13.4,0.964,> 10,0.955,> 5,0.785,5.32
"HEC-1 (endometrium, adherent)",0.982,> 10,0.989,> 10.2,0.909,> 20,0.926,> 40,0.986,> 10,0.839,3.24,0.953,> 10.2
"HN (head and neck, adherent)",0.952,> 10,0.983,> 10.2,0.794,8.59,0.989,> 40,0.971,> 10,0.801,2.27,0.966,> 10.2
"HO-1-u-1 (head and neck, adherent)",0.872,8.8,0.897,> 10.2,0.87,17.4,0.84,25.9,0.95,> 10,0.932,> 5,0.769,3.72
"HOS (osteosarcoma, adherent)",0.963,> 10,0.992,> 10.2,0.988,> 20,0.988,> 40,0.979,> 10,0.761,1.51,0.974,> 10.2
"HSC-2 (head and neck, adherent)",0.976,> 10,0.987,> 10.2,0.972,> 20,0.981,> 40,0.885,9.46,0.919,> 5,0.691,2.1
"HT55 (large intestine, adherent)",0.99,> 10,0.99,> 10.2,0.989,> 20,0.92,> 40,0.99,> 10,0.985,> 5,0.99,> 10.2
"HT-3 (cervix, adherent)",0.958,> 10,0.954,> 10.2,0.871,19.3,0.797,19.2,0.983,> 10,0.899,> 5,0.882,> 10.2
"HT-115 (large intestine, adherent)",0.991,> 10,0.991,> 10.2,0.977,> 20,0.991,> 40,0.991,> 10,0.955,> 5,0.991,> 10.2
"HT-1080 (fibrosarcoma, adherent)",0.985,> 10,0.989,> 10.2,–,–,0.977,> 40,0.978,> 10,0.807,2.24,0.791,4.07
"HT-1197 (bladder, adherent)",0.945,> 10,0.983,> 10.2,0.861,> 20,0.882,> 40,0.977,> 10,0.984,> 5,0.861,> 10.2
"HT-1376 (bladder, adherent)",0.927,> 10,0.985,> 10.2,0.983,> 20,0.985,> 40,0.975,> 10,0.904,> 5,0.985,> 10.2
"Hep 3B2_1-7 (liver, adherent)",0.987,> 10,0.987,> 10.2,0.872,19,0.932,> 40,0.879,> 10,0.84,3.44,0.925,> 10.2
"Hey (ovary, adherent)",0.97,> 10,0.984,> 10.2,0.67,3.62,0.716,9.79,0.969,> 10,0.735,1.4,0.51,0.679

Cell Line,AUC (Tretinoin),IC50 (Tretinoin) [µM],AUC (GSK690693),IC50 (GSK690693) [µM],AUC (UNC0638; [1]),IC50 (UNC0638; [1]) [µM],AUC (UNC0638; [2]),IC50 (UNC0638; [2]) [µM],AUC (SB-505124),IC50 (SB-505124) [µM],AUC (BX-795),IC50 (BX-795) [µM],AUC (PI-103),IC50 (PI-103) [µM]
"Hs633T (fibrosarcoma, adherent)",0.882,7.28,0.982,> 10.2,0.987,> 20,0.855,23.1,0.969,> 10,0.592,0.532,0.701,2.08
"Hs683 (glioma, adherent)",0.984,> 10,0.958,> 10.2,0.987,> 20,0.843,28.9,0.972,> 10,0.815,2.79,0.534,0.794
"Hs746T (stomach, adherent)",0.956,> 10,0.807,7.63,0.853,> 20,0.813,31.8,0.948,> 10,0.842,> 5,0.413,0.34
"Hs766T (pancreas, adherent)",0.965,> 10,0.982,> 10.2,0.969,> 20,0.942,> 40,0.966,> 10,0.891,> 5,0.984,> 10.2
"Hs939-T (melanoma, adherent)",0.98,> 10,0.986,> 10.2,0.814,12.2,0.863,> 40,0.968,> 10,0.949,> 5,0.944,> 10.2
"Hs-578-T (breast, adherent)",0.891,> 10,0.987,> 10.2,0.973,> 20,0.986,> 40,0.968,> 10,0.825,3.24,0.987,> 10.2
"HuCCT1 (biliary tract, adherent)",0.961,> 10,0.954,> 10.2,0.811,12.1,0.741,13.4,0.982,> 10,0.891,> 5,0.562,0.967
"HuO9 (osteosarcoma, adherent)",0.802,5.54,0.982,> 10.2,0.747,7,0.954,> 40,0.966,> 10,0.8,2.72,0.52,0.73
"HuO-3N1 (osteosarcoma, adherent)",0.803,6.94,0.925,> 10.2,0.793,12.5,0.745,16.1,0.977,> 10,0.854,> 5,0.731,3.64
"HuP-T3 (pancreas, adherent)",0.98,> 10,0.972,> 10.2,0.928,> 20,0.795,23.5,0.98,> 10,0.912,> 5,0.532,0.796
"HuP-T4 (pancreas, adherent)",0.935,> 10,0.94,> 10.2,0.82,12.4,0.597,4.69,0.983,> 10,0.894,> 5,0.892,> 10.2
"IGR-1 (melanoma, adherent)",0.978,> 10,0.99,> 10.2,0.829,10.4,0.649,6.12,0.935,> 10,0.891,4.57,0.966,> 10.2
"IGR-37 (melanoma, adherent)",0.706,2.24,0.989,> 10.2,0.828,10.9,0.852,26.8,0.927,> 10,0.825,2.65,0.988,> 10.2
"IHH-4 (thyroid, semi-adherent)",0.993,> 10,0.99,> 10.2,0.834,9.57,0.933,> 40,0.878,6.76,0.749,1.35,0.575,0.984
"IPC-298 (melanoma, adherent)",0.972,> 10,0.983,> 10.2,0.694,4.35,0.543,3.27,0.979,> 10,0.935,> 5,0.581,1.06
"JEG-3 (urogenital system, adherent)",0.991,> 10,0.991,> 10.2,0.901,> 20,0.991,> 40,0.95,> 10,0.858,3.47,0.991,> 10.2
"JHH-1 (liver, adherent)",0.947,> 10,0.947,> 10.2,0.874,> 20,0.701,9.75,0.983,> 10,0.917,> 5,0.189,0.0677
"JHH-2 (liver, adherent)",0.976,> 10,0.974,> 10.2,0.984,> 20,0.867,> 40,0.937,> 10,0.884,> 5,0.351,0.24
"JHH-4 (liver, adherent)",0.973,> 10,0.972,> 10.2,0.962,> 20,0.982,> 40,0.965,> 10,0.819,2.84,0.935,> 10.2
